Among all 45,000 compounds or so, about 65 (0.1%) were called active. The call rests on the fitted dose curve; in most records, active means well fitted activation curve with a large enough effect; inconclusive means small, poorly fitted or top-dose-only effect; inactive means no such curve, though single readings can be large or run the other way. This is one part of the list.
These compounds were tested against Galactocerebrosidase (Homo sapiens) (UniProt P54803) (assay: A Novel Cell-Based Assay to Identify Small Molecules for B -Galactocerebrosidase). Conditions: 145M-Twi-hGALC-G270D cells (Twitcher mouse brain line with human GALC G270D), HMU-beta-Gal fluorescence, 48 h; series mostly up to 57.5 µM; activation: at the top concentration.
Sequence of UniProt P54803 (P54803 whole entry, looked up): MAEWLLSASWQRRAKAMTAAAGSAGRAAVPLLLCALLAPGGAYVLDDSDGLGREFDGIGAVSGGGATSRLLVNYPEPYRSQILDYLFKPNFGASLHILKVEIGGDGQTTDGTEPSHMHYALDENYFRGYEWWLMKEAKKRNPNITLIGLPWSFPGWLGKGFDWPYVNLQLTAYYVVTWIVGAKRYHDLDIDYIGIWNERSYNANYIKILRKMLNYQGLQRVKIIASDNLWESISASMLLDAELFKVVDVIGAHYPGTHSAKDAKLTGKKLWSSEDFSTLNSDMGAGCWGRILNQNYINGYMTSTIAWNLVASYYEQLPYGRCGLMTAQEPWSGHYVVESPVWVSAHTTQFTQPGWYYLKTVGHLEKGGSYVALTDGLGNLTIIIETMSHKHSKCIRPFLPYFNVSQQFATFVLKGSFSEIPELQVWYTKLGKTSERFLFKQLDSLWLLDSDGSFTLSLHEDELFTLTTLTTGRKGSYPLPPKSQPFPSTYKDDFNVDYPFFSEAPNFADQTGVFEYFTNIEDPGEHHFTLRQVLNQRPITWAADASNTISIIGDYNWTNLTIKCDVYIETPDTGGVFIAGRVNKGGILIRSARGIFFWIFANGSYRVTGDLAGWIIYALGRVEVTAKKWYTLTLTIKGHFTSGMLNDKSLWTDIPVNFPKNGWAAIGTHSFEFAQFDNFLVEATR
Procedure, shortened: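 Fluorescence readout: HMU-β-gal cleavage by mutant GALC (0.1 mM final, citrate/phosphate pH 5.2 with 1 mg/mL taurocholate), stopped with carbonate/bicarbonate plus Triton X-100. Cells: murine Twitcher 145M-Twi expressing human G270D GALC; qHTS for activators.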
CC1=C(C(=O)Nc2ccccc2)C(CC(C)C)n2nc(SCc3ccccc3C)nc2N1 (stereo not drawn) was tested, and the “activation” value was inactive: -0.988%.
With O=C(c1cc2c(s1)-c1ccccc1OC2)N1CCN(c2ccccc2)CC1 the “activation” value was inactive: -13.8%.
With CCc1nn(C(CC)C(=O)NCc2ccc(F)cc2)c(=O)c2cc3occc3n12 (stereo not drawn) the “activation” value was inactive: -5.45%.
In the case of COc1cc(C(=O)NCC(c2ccco2)S(=O)(=O)c2ccccc2)cc(OC)c1OC (stereo not drawn), the “activation” value was inactive: -16.4%.
For O=C(CCc1ccccc1)N(Cc1cccnc1)c1nc2c(F)cccc2s1, the “activation” value was inactive: -7.72%.
For Cc1ccc(Nc2c(-c3ccc(O)cc3)nc3cccc(C)n23)cc1, the “activation” value was inactive: 6.11%.
For Cc1cccc(NC(=O)CSc2nncn2C)c1, the “activation” value was inactive: 9.55%.
With Cc1nc(-c2ccc(Cl)cc2)sc1CCNC(=O)c1cccs1 the “activation” value was inactive: -17.1%.
With Cc1ccc(C(=O)Nc2ccc(OCc3cc(=O)n4c(C)csc4n3)cc2)cc1 the “activation” value was inactive: 7.32%.
For Cc1ccc(NC(=O)Cc2csc(C)n2)c(C)c1, the “activation” value was inactive: -1.15%.
With CCCN(CCC)CCCNC(=O)Cn1ncc2c3ccccc3n(Cc3ccccc3)c2c1=O the “activation” value was inactive: -12.8%.
O=C(c1ccc2c(c1)N(Cc1ccccc1)C(=O)c1ccccc1S2(=O)=O)N1CCCCCC1 was tested, and the “activation” value was inactive: -10.5%.
Cc1ccc(S(=O)(=O)c2c(Nc3cc(F)ccc3F)sc(C(=O)c3ccc(F)cc3)c2N)cc1 was tested, and the “activation” value was inactive: -12.5%.
In the case of CC(=O)Nc1nonc1-c1nnc(SCC(=O)Nc2cc(C)cc(C)c2)n1-c1ccccc1, the “activation” value was inactive: 0.285%.
In the case of CCCOc1ccc(-c2nc(SC)[nH]c(=O)c2C#N)cc1OC, the “activation” value was inactive: -18.1%.
For CCN(CC)CCN(C(=O)c1ccco1)c1nc2ccc(Br)cc2s1, the “activation” value was inactive: -11.8%.
With Cc1ccccc1Nc1ncnc2c1cnn2C the “activation” value was inactive: -12.6%.
Cc1cccc(C(=O)N2CCc3cc(CNS(=O)(=O)c4ccc(Cl)s4)ccc32)c1 was tested, and the “activation” value was inactive: -11%.
Cc1ccccc1OCC(=O)Nc1ccc(-c2nc3ncccc3o2)cc1 was tested, and the “activation” value was inactive: 8.5%.
With CCCCN(CC)CCNC(=O)c1cc2c(=O)[nH]c3ccccc3c2n1C the “activation” value was inactive: -9.13%.
With Cc1c(Cl)cccc1NC(=O)CN(CCc1ccccc1)S(=O)(=O)c1ccccc1 the “activation” value was inactive: -14.8%.
CCOc1ccc(CNCc2c(C(=O)O)n(Cc3ccc(C)cc3)c3cc(C)ccc23)cc1 was tested, and the “activation” value was inactive: -2.05%.
In the case of Cc1ccccc1CN1C(=O)c2ccccc2Sc2ccc(C(=O)N3CCCC3)cc21, the “activation” value was inactive: -8.84%.
In the case of CCCc1nc2ccccc2n2c(-c3ccccc3)c3c(=O)n(C)c(=O)n(C)c3c12, the “activation” value was inactive: -17%.
With CCCCn1c(NCc2ccc(OC)cc2O)nc2ccccc21 the “activation” value was inactive: -13.7%.
In the case of O=C(NCc1ccc(F)cc1)c1ccc2c(O)c(S(=O)(=O)c3ccccc3)c(=O)[nH]c2c1, the “activation” value was inactive: -22.6%.
For CCCCn1nc(NC(=O)c2cccc(Cl)c2)c2cc3ccccc3nc21, the “activation” value was inactive: -8.35%.
For O=C(NCc1ccccc1)c1ccc(CSc2nc3cccnc3n2Cc2cccc(F)c2)cc1, the “activation” value was inactive: -10.1%.
COc1ccc(C)cc1-n1nnc(-c2nc(-c3ccccc3Cl)no2)c1N was tested, and the “activation” value was inactive: -8.26%.
With Cc1ccccc1NS(=O)(=O)c1ccc2[nH]cc(C(=O)N3CCCCC3)c(=O)c2c1 the “activation” value was inactive: -12.4%.
For Cc1ccc(-c2nnn3c2nc(NCCc2ccc(Cl)cc2)c2ccccc23)cc1, the “activation” value was inactive: -11.9%.
With CCN(C(=O)c1coc(=O)c2ccccc12)c1ccccc1C the “activation” value was inactive: -9.48%.
For CC(C)c1ccc(C(=O)Nc2cc(-c3ccccc3F)nn2-c2ccccc2)cc1, the “activation” value was inactive: -14.5%.
In the case of CCCOc1ccc(CNC(=O)Cn2ncn3c(cc4sc(CC)cc43)c2=O)cc1, the “activation” value was inactive: -9.04%.
In the case of COC(=O)c1ccc(NC(=O)NCCn2nnc3cc(S(=O)(=O)N(C)C)ccc32)cc1, the “activation” value was inactive: -9.45%.
For CCOc1ccc(CNC(=O)c2ccc3nc(C(C)C)oc3c2)cc1, the “activation” value was inactive: -9.82%.
With COc1ccc(Nc2cc(C(=O)NC3CCC(C)CC3)c3ccccc3n2)cc1OC (stereo not drawn) the “activation” value was inactive: -2.64%.
Cc1c(C(=O)N2CCCCCC2)c(S(=O)(=O)NCc2ccc(Br)cc2)c(C)n1C was tested, and the “activation” value was inactive: -15.8%.
In the case of Cc1ccc(-c2nc3ccccn3c2Nc2ccccc2C)s1, the “activation” value was inactive: -14.6%.
For COC(=O)C1=C(C)NC(C)=C(C(=O)OC)C1c1ccccc1[N+](=O)[O-], the “activation” value was inactive: -7.62%.
In the case of Cc1oc2ncnc(N3CCOCC3)c2c1C(=O)N(Cc1ccccc1)C(C)C, the “activation” value was inactive: -13.2%.
For COc1ccc(S(=O)(=O)NCC(c2ccco2)S(=O)(=O)c2cccs2)cc1C (stereo not drawn), the “activation” value was inactive: -10.8%.
With CCOc1ccc(C2Nc3c(C)cccc3-c3cc(C)nn32)cc1 (stereo not drawn) the Potency was active: 25.1 µM.
With Cn1c(=O)c(=O)n(C)c2cc(S(=O)(=O)CCC(=O)Nc3ccc(F)cc3)ccc21 the “activation” value was inactive: -15.3%.
In the case of CCOc1ccccc1C(=O)Nc1c(C(=O)Nc2ccc(F)cc2)oc2ccccc12, the “activation” value was inactive: -7.52%.
For COc1ccc(NC(=O)c2ccco2)cc1NC(=O)COc1ccccc1, the “activation” value was inactive: -9.69%.
In the case of Cc1ccc(C(=O)Nc2nnc(S(=O)(=O)N3c4ccccc4CC3C)s2)cc1 (stereo not drawn), the “activation” value was inactive: -16.6%.
With Cn1c(=O)n(C)c2cc(N3CCOCC3)c(NC(=O)c3ccccc3Br)cc21 the “activation” value was inactive: 5.9%.
In the case of CCc1ccc(S(=O)(=O)c2cn(C)c3cc(N4CCC(C)CC4)c(F)cc3c2=O)cc1, the “activation” value was inactive: -19.4%.
With CCOC(=O)c1ccc(NC(=O)c2c(NCc3cccs3)sc3c2CCCC3)cc1 the “activation” value was inactive: -13.9%.
In the case of COc1ccc(OC(=O)c2nc(SCc3ccc(F)cc3)ncc2Cl)cc1, the “activation” value was inactive: 0.758%.
With O=c1c(S(=O)(=O)c2ccccc2)cn(Cc2cccc(F)c2)c2cc(N3CCOCC3)c(F)cc12 the “activation” value was inactive: -10.2%.
For COc1cccc(-c2nnc(-c3ccccc3NC(=O)c3cccc(C(F)(F)F)c3)o2)c1, the “activation” value was inactive: 14.1%.
In the case of CCOC(=O)c1cc(OC(=O)c2ccc(C)cc2)n(-c2ccccc2)n1, the “activation” value was inactive: -8.74%.
In the case of Cc1ccc(C2=NN(CC(=O)NCCC(C)C)C(=O)CC2)cc1, the “activation” value was inactive: -9.68%.
In the case of CCOc1ccc(NC(=O)c2cnn3c2NC(c2cccc(OC)c2)=CC3c2ccccc2)cc1 (stereo not drawn), the “activation” value was inactive: -12.7%.
With CC(=O)Nc1ccc(NC(=O)CSc2nc3ccccc3nc2N2CCC(C)CC2)cc1 the “activation” value was inactive: -8.17%.
COc1ccc(CNC(=O)CN2C(=O)CSc3ccc(S(=O)(=O)N4CCOCC4)cc32)c(OC)c1 was tested, and the “activation” value was inactive: -0.909%.
COc1cccc(CNC(=O)c2cc(S(=O)(=O)N3CCCCC3)cn2C)c1 was tested, and the “activation” value was inactive: -19.8%.
In the case of CCOc1ccc(CCNC(=O)CN2N=C(c3ccccc3)CCC2=O)cc1OCC, the “activation” value was inactive: 19.5%.
In the case of Cc1ccc2nc(N(Cc3cccnc3)C(=O)CCS(=O)(=O)c3ccccc3)sc2c1, the “activation” value was inactive: -17.6%.
In the case of CC(=O)c1ccc(NC(=O)CSc2nc(-c3cccc(F)c3)nc3c2c(=O)n(C)c(=O)n3C)cc1, the “activation” value was inactive: -17.8%.
In the case of Cc1ccc(CN(Cc2ccco2)C(=O)COc2ccc(C(C)C)cc2)cc1, the “activation” value was inactive: -30.2%.
Further: nearly all actives have a fitted effect of over 65% in size.
Potency means the concentration at half of the fitted maximal effect.
Wherever activation is given: 0% is about no effect.
